System: Echo 30/WZ16
Experiment: Infectivity-based thermostability assay
Type: cell-based
Details: virus co-incubated with equal volume of peptide at 62.5 µg/mL, 37 °C 15 min and 45 °C 2 min
Description: The enterovirus (10^4–10^6 TCID50/100 µL) was incubated with an equal volume of the peptide at a final concentration of 62.5 µg/mL at 37 °C for 15 min and 43–48 °C for 2 min, followed by rapid cooling on ice. Subsequently, 46 µL of the mixture were diluted using 100 µL DMEM to achieve a continuous 0.5 Log10 dilution and added to the RD cells. After a 24-h infection, the CPE was stained using crystal violet and observed. Virus titers were determined in terms of the mean TCID50 per 100 µL by the detection of CPE on the cells. The experiment was repeated with at least two independent biological replicates for each measurement.

For `CC[C@H](C)[C@H](NC(=O)[C@H](Cc1c[nH]cn1)NC(=O)[C@H](CCCCN)NC(=O)[C@@H]1CCCN1C(=O)[C@H](CCCCN)NC(=O)[C@H](CCSC)NC(=O)[C@H](Cc1ccc(O)cc1)NC(=O)[C@@H](NC(=O)[C@H](CCCNC(=N)N)NC(=O)[C@@H](NC(=O)[C@@H](NC(=O)[C@@H](NC(=O)[C@@H](NC(=O)[C@H](Cc1ccccc1)NC(=O)CNC(=O)[C@@H](NC(=O)[C@@H]1CCCN1C(=O)[C@H](CCC(N)=O)NC(=O)[C@@H](N)Cc1c[nH]cn1)C(C)C)[C@@H](C)O)C(C)C)[C@@H](C)O)C(C)C)C(C)C)C(=O)N[C@@H](CCCCN)C(=O)O` [Peptide P25.9], the “Retention of infectivity of Echo 30/WZ16 after heating” value was “retained the infectivity”.
